Where “and” joins values, the source holds several entries; their conditions need not be identical. Identical values can stand only once. Blank lines part the entries; values can stand above or below the molecule they belong to.
Experiments:
male Sprague-Dawley rats [1] = assay: Reversal of fluoxetine-induced deficits in non-contact penile erections by co-administered agents; assay type: in vivo, rat; conditions: for mean number of non-contact penile erections: mean+sem
Experimental: On the day of behavioral testing, antidepressants were administered intraperitoneally (i.p.) as one hour pretreatments. For reversal experiments, apomorphine (Sigma; St. Louis, Mo.) was dissolved in 0.9% sterile saline vehicle and injected subcutaneously in a volume of 1 ml/kg. […] 17B-estradiol benzoate and progesterone were purchased from Sigma (St. Louis, Mo.).
(§1) Data are presented as group means±sem. For statistical analysis, data was subjected to one way analysis of variance (ANOVA) with a least significant difference (LSD) post-hoc test as appropriate. Statistical significance was achieved when p<0.05.
(§2) To determine the effects of female stimuli on non-contact penile erections, sexually receptive females were brought into the testing room one hour prior to the start of behavioral testing in order to provide female visual, olfactory, and auditory stimuli for males. The testing arena for observing non-contact penile erections in male rats consisted of an empty rat size Plexiglas cage (11×10 inches) containing no bedding, with an aerated plastic lid and a total ceiling height of 12 inches. […] A penile erection consisted of observation of the male rat in a hunched position grasping the penis with the forepaws and followed by a series of pelvic thrusts. The number of penile erections were quantified over a 30 minute observation session.
In a similar study, the ability of additional substances to reverse (or at least partially reverse) the effects of antidepressant-induced sexual dysfunction was evaluated. Sildenafil citrate (available as VIAGRA from Pfizer Inc. of New York, N.Y.), yohimbine and dopamine agonists were studied in the foregoing manner.

male Sprague-Dawley rats [2] = assay: Non-contact penile erections in sexually experienced male rats in the presence of receptive females after antidepressant treatment; assay type: in vivo, rat; conditions: for mean number of non-contact penile erections: 30 min session, mean+sem; for decrease in the number of non-contact penile erections relative to vehicle-treated animals: time course studies (FIGS. 3-5), corresponding vehicle group
Experimental: The doses of the antidepressants evaluated in the present studies were selected based on the reported efficacious dose ranges of these drugs in preclinical models predicting antidepressant-like activity in rats including olfacoty bulbectomy studies and forced swim test experiments (Reneric et al., 1998; West et al., 1998; Joly and Sanger, 1986). […] On the day of behavioral testing, antidepressants were administered intraperitoneally (i.p.) as one hour pretreatments. For reversal experiments, apomorphine (Sigma; St. Louis, Mo.) was dissolved in 0.9% sterile saline vehicle and injected subcutaneously in a volume of 1 ml/kg. […] 17B-estradiol benzoate and progesterone were purchased from Sigma (St. Louis, Mo.).
as §1
Intact male Sprague-Dawley rats (Charles River Laboratories) arrived at 7 weeks of age and were allowed to habituate for one week prior to sexual experience or behavioral testing. Rats were group housed in same-sex colony rooms with food and water provided ad libitum. All animals were maintained under a 12:12 light-dark cycle (lights on at 6:00 am) with behavioral experiments performed during the light hours beginning at noon.
Ovariectomized female Long-Evans rats (Charles River Laboratories) were individually housed and brought into behavioral estrus weekly by subcutaneous injection of 25 ug 17-B estradiol benzoate in 0.1 ml corn oil 48 hours prior to testing, followed by subcutaneous administration of 2.5 mg progesterone in 0.1 ml corn oil 4-6 hours before testing.
For subjects assigned into the sexually experienced group, the following procedures were performed. Individual male rats were placed into a cage with a sexually receptive female for overnight mating sessions. The mating chamber which was the housing chamber of the female mating partner, was a Plexiglas cage measuring 10×12 inches, with food and water ad libitum. Mating pairs were randomly assigned. […] Following overnight mating sessions, males and females were separated from each other and placed back into same-sex colony rooms where they were group-housed until the time of behavioral testing.
as §2

patients = conditions: clinical studies from the literature; cited from earlier work
[3] = Locomotor activity observed during the non-contact penile erection test; conditions: bupropion 20 mg/kg/day i.p. for 7 and 14 days (subchronic and chronic)
[4] = acute (1 day) treatment i.p., fluoxetine/desipramine 10 mg/kg, bupropion 20 mg/kg
[5] = chronic (14 day) treatment i.p., fluoxetine/desipramine 10 mg/kg/day, bupropion 20 mg/kg/day
[6] = chronic (14 day) treatment i.p.
[7] = subchronic (7 day) treatment i.p., fluoxetine/desipramine 10 mg/kg/day, bupropion 20 mg/kg/day

SMILES: CN1CCc2cccc3c2[C@H]1Cc1ccc(O)c(O)c1-3 [apomorphine]
mean number of non-contact penile erections (male Sprague-Dawley rats [1]; acute apomorphine 0.03 mg/kg s.c. co-administered with chronic (14 day) fluoxetine 10 mg/kg/day i.p.): 2.57+0.69 | mean number of non-contact penile erections (male Sprague-Dawley rats [1]; acute apomorphine 0.03 mg/kg s.c. co-administered with chronic (14 day) saline vehicle i.p.): 3.00+0.38 | reversal of the number of non-contact penile erections relative to acute vehicle+chronic fluoxetine treated group (male Sprague-Dawley rats [1]; acute apomorphine 0.03 mg/kg s.c. with chronic fluoxetine, P=0.0622): 51.4% | mean number of non-contact penile erections (male Sprague-Dawley rats [1]; acute apomorphine 0.1 mg/kg s.c. co-administered with chronic (14 day) fluoxetine 10 mg/kg/day i.p.): 2.88+0.61 | mean number of non-contact penile erections (male Sprague-Dawley rats [1]; acute apomorphine 0.1 mg/kg s.c. co-administered with chronic (14 day) saline vehicle i.p.): 4.13+0.35 | reversal of the number of non-contact penile erections relative to acute vehicle+chronic fluoxetine treated group (male Sprague-Dawley rats [1]; acute apomorphine 0.1 mg/kg s.c. with chronic fluoxetine, P<0.05): 56.5% | number of non-contact penile erections compared with acute vehicle+chronic vehicle treated subjects (in words) (male Sprague-Dawley rats [1]; acute apomorphine 0.03 or 0.1 mg/kg s.c. with chronic saline vehicle): not different from acute vehicle+chronic vehicle treated subjects

mean number of non-contact penile erections (male Sprague-Dawley rats [2]; [4]): 0.50+0.22 | mean number of non-contact penile erections (male Sprague-Dawley rats [2]; [5]): 1.63+0.57 | mean number of non-contact penile erections (male Sprague-Dawley rats [2]; [7]): 2.00+0.50 | increased locomotor activity / hyperactivity [3]: not observed
SMILES: CC(NC(C)(C)C)C(=O)c1cccc(Cl)c1 (stereo not shown) [bupropion, (.+−.)-1-(3-chlorophenyl)-2-[(1,1-dimethylethyl)amino]-1-propanone]
effect on penile erections (in words) (male Sprague-Dawley rats [2]; acute treatment): significant reduction in the number of penile erections | decrease in the number of non-contact penile erections relative to vehicle-treated subjects (male Sprague-Dawley rats [2]; acute treatment i.p., desipramine 10 mg/kg, bupropion 20 mg/kg): 57% | decrease in the number of non-contact penile erections relative to vehicle-treated animals (male Sprague-Dawley rats [2]; [6]): 7% | reduction in the number of non-contact penile erections relative to vehicle-treated controls (male Sprague-Dawley rats [2]; [7]): 11% | patients reporting sexual dysfunction / impairment in sexual function (patients): 14%

mean number of non-contact penile erections (male Sprague-Dawley rats [2]; [4]): 1.00+0.33 | mean number of non-contact penile erections (male Sprague-Dawley rats [2]; [5]): 1.00+0.46 | mean number of non-contact penile erections (male Sprague-Dawley rats [2]; [7]): 0.75+0.31
SMILES: CNCCCN1c2ccccc2CCc2ccccc21 [desipramine]
effect on number of penile erections over time (in words) (male Sprague-Dawley rats [2]; acute, subchronic and chronic treatment): reduction in the number penile erections acutely and consistently over time | decrease in the number of non-contact penile erections relative to vehicle-treated controls (male Sprague-Dawley rats [2]; chronic (14 day) treatment i.p., FIG. 2 comparison, vehicle n=14 (1.79+0.32)): 44% and 43% | decrease in the number of non-contact penile erections relative to vehicle-treated animals (male Sprague-Dawley rats [2]; [6]): 43% | reduction in the number of non-contact penile erections relative to vehicle-treated controls (male Sprague-Dawley rats [2]; [7]): 60%

SMILES: CNCCC(Oc1ccc(C(F)(F)F)cc1)c1ccccc1 (stereo not shown) [fluoxetine, N-methyl-3-(p-trifluoromethylphenoxy)-3-phenylpropylamine]
patients reporting sexual dysfunction / impairment in sexual function (patients): 73%

SMILES: COC(=O)[C@@H]1[C@H]2C[C@H]3c4[nH]c5ccccc5c4CCN3C[C@@H]2CC[C@@H]1O [yohimbine]
ability to reverse the effects of fluoxetine on non-contact penile erections (in words, FIG. 7) (male Sprague-Dawley rats [1]; co-administered with fluoxetine (over 14 days)): reverse to effects of the fluoxetine is demonstrated

Source: patent US20060263299A1, “Effect of substances on sexual function” (priority 2005, published 2006)
